# In the supplement of paper PMC4604168 (melanoma cell lines):
# Some of the results follow. Most values come without repeats; read them as rough.
# Experiments:
# Assay in all cases: cell count relative to DMSO control; melanoma cells; higher = more viable cells
# Conditions in all cases: library dose: low library concentration; 72 h
# MZ2-MEL = tested on: MZ2-MEL
# MeWo = tested on: MeWo
# RPMI7951 = tested on: RPMI7951
# RVH-421 = tested on: RVH-421
# SkMel28 = tested on: SkMel28
# SkMel2 = tested on: SkMel2
# SkMel30 = tested on: SkMel30
# UACC62 = tested on: UACC62
# WM115 = tested on: WM115
# WM1716 = tested on: WM1716
# WM1745 = tested on: WM1745
# WM3526 = tested on: WM3526
# WM3619 = tested on: WM3619
# WM451Lu = tested on: WM451Lu
# 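Also: cell number obtained by counting DAPI-stained nuclei in high-throughput microscope images with image analysis software, screen run in 1,536-well plates.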
compound,measurement,setting,value
"N#CC[C@H](C1CCCC1)n1cc(-c2ncnc3[nH]ccc23)cn1 [ruxolitinib] + CC[C@]1(O)C[C@H]2CN(CCc3c([nH]c4ccccc34)[C@@](C(=O)OC)(c3cc4c(cc3OC)N(C=O)[C@H]3[C@@](O)(C(=O)OC)[C@H](OC(C)=O)[C@]5(CC)C=CCN6CC[C@]43[C@@H]65)C2)C1 [vincristine] (first compound 1 µM, partner dose 0.0001 µM)",cell count,MZ2-MEL,105%
same,cell count,MeWo,102%
same,cell count,RPMI7951,71%
same,cell count,RVH-421,82%
same,cell count,SkMel28,111%
same,cell count,SkMel2,99.6%
same,cell count,SkMel30,108%
same,cell count,UACC62,90.3%
same,cell count,WM115,95.4%
same,cell count,WM1716,67.8%
same,cell count,WM1745,94.1%
same,cell count,WM3526,90.5%
same,cell count,WM3619,62.2%
same,cell count,WM451Lu,65.7%
"Cc1cc(Nc2cc(N3CCN(C)CC3)nc(Sc3ccc(NC(=O)C4CC4)cc3)n2)n[nH]1 [Tozasertib] + NC1(c2ccc(-c3nc4ccn5c(=O)[nH]nc5c4cc3-c3ccccc3)cc2)CCC1 [MK2206] (first compound 0.006 µM, partner dose 0.4 µM)",cell count,MZ2-MEL,96.1%
same,cell count,MeWo,74.3%
same,cell count,RPMI7951,78%
same,cell count,RVH-421,95.7%
same,cell count,SkMel28,93.6%
same,cell count,SkMel2,89.5%
same,cell count,SkMel30,92.2%
same,cell count,UACC62,75.5%
same,cell count,WM115,77.1%
same,cell count,WM1716,80.3%
same,cell count,WM1745,82.1%
same,cell count,WM3526,67.7%
same,cell count,WM3619,90.2%
same,cell count,WM451Lu,129%
"N#CC[C@H](C1CCCC1)n1cc(-c2ncnc3[nH]ccc23)cn1 [ruxolitinib] + C=C(c1ccc(C(=O)O)cc1)c1cc2c(cc1C)C(C)(C)CCC2(C)C [Bexarotene] (first compound 1 µM, partner dose 2 µM)",cell count,MZ2-MEL,96.8%
same,cell count,MeWo,93.1%
same,cell count,RPMI7951,75%
same,cell count,RVH-421,96.1%
same,cell count,SkMel28,89.2%
same,cell count,SkMel2,97.1%
same,cell count,SkMel30,108%
same,cell count,UACC62,97.5%
same,cell count,WM115,117%
same,cell count,WM1716,96.3%
same,cell count,WM1745,99.7%
same,cell count,WM3526,99.3%
same,cell count,WM3619,91.4%
same,cell count,WM451Lu,67.5%
"CC[C@]1(O)C[C@H]2CN(CCc3c([nH]c4ccccc34)[C@@](C(=O)OC)(c3cc4c(cc3OC)N(C=O)[C@H]3[C@@](O)(C(=O)OC)[C@H](OC(C)=O)[C@]5(CC)C=CCN6CC[C@]43[C@@H]65)C2)C1 [vincristine] + CCCCCCCCc1ccc(CCC(N)(CO)CO)cc1 [fingolimod] (first compound 0.0001 µM, partner dose 2 µM)",cell count,MZ2-MEL,104%
same,cell count,MeWo,63.2%
same,cell count,RPMI7951,50.5%
same,cell count,RVH-421,86.4%
same,cell count,SkMel28,64.7%
same,cell count,SkMel2,79.4%
same,cell count,SkMel30,63.9%
same,cell count,UACC62,54.8%
same,cell count,WM115,55.3%
same,cell count,WM1716,43.7%
same,cell count,WM1745,64.7%
same,cell count,WM3526,81.4%
same,cell count,WM3619,44.2%
same,cell count,WM451Lu,64.6%
"Cc1cc(Nc2cc(N3CCN(C)CC3)nc(Sc3ccc(NC(=O)C4CC4)cc3)n2)n[nH]1 [Tozasertib] + CC[C@]1(O)C[C@H]2CN(CCc3c([nH]c4ccccc34)[C@@](C(=O)OC)(c3cc4c(cc3OC)N(C=O)[C@H]3[C@@](O)(C(=O)OC)[C@H](OC(C)=O)[C@]5(CC)C=CCN6CC[C@]43[C@@H]65)C2)C1 [vincristine] (first compound 0.006 µM, partner dose 0.0001 µM)",cell count,MZ2-MEL,94.8%
same,cell count,MeWo,99.1%
same,cell count,RPMI7951,68.3%
same,cell count,RVH-421,117%
same,cell count,SkMel28,93.6%
same,cell count,SkMel2,99%
same,cell count,SkMel30,69.5%
same,cell count,UACC62,75.6%
same,cell count,WM115,61.8%
same,cell count,WM1716,48.8%
same,cell count,WM1745,75.9%
same,cell count,WM3526,70.5%
same,cell count,WM3619,58.9%
same,cell count,WM451Lu,93.1%
"Cc1cc(Nc2cc(N3CCN(C)CC3)nc(Sc3ccc(NC(=O)C4CC4)cc3)n2)n[nH]1 [Tozasertib] + CCCCCCCCCCCCCCCCCCOP(=O)([O-])OC1CC[N+](C)(C)CC1 [Perifosine] (first compound 0.006 µM, partner dose 0.4 µM)",cell count,MZ2-MEL,103%
same,cell count,MeWo,93.1%
same,cell count,RPMI7951,106%
same,cell count,RVH-421,91.6%
same,cell count,SkMel28,95.4%
same,cell count,SkMel2,89.4%
same,cell count,SkMel30,111%
same,cell count,UACC62,85.1%
same,cell count,WM115,104%
same,cell count,WM1716,97.2%
same,cell count,WM1745,106%
same,cell count,WM3526,86%
same,cell count,WM3619,87.8%
same,cell count,WM451Lu,101%
"CC[C@]1(O)C[C@H]2CN(CCc3c([nH]c4ccccc34)[C@@](C(=O)OC)(c3cc4c(cc3OC)N(C=O)[C@H]3[C@@](O)(C(=O)OC)[C@H](OC(C)=O)[C@]5(CC)C=CCN6CC[C@]43[C@@H]65)C2)C1 [vincristine] + C[C@]1(c2nc3c(C(N)=O)cccc3[nH]2)CCCN1 [Veliparib] (first compound 0.0001 µM, partner dose 1.4 µM)",cell count,MZ2-MEL,70.5%
same,cell count,MeWo,54.2%
same,cell count,RPMI7951,41.4%
same,cell count,RVH-421,74.5%
same,cell count,SkMel28,55.5%
same,cell count,SkMel2,72.1%
same,cell count,SkMel30,51.2%
same,cell count,UACC62,48.2%
same,cell count,WM115,54.9%
same,cell count,WM1716,39.6%
same,cell count,WM1745,87.7%
same,cell count,WM3526,63.8%
same,cell count,WM3619,50.4%
same,cell count,WM451Lu,53.5%
"Cc1cc(Nc2cc(N3CCN(C)CC3)nc(Sc3ccc(NC(=O)C4CC4)cc3)n2)n[nH]1 [Tozasertib] + C[C@@H](Oc1cc(-c2cnn(C3CCNCC3)c2)cnc1N)c1c(Cl)ccc(F)c1Cl [Crizotinib] (first compound 0.006 µM, partner dose 0.2 µM)",cell count,MZ2-MEL,104%
same,cell count,MeWo,92%
same,cell count,RPMI7951,100%
same,cell count,RVH-421,83.6%
same,cell count,SkMel28,102%
same,cell count,SkMel2,96.6%
same,cell count,SkMel30,89.2%
same,cell count,UACC62,97%
same,cell count,WM115,89.8%
same,cell count,WM1716,91.4%
same,cell count,WM1745,86.9%
same,cell count,WM3526,88.7%
same,cell count,WM3619,93%
same,cell count,WM451Lu,95.4%
